# Measurements reported in the supplement of paper PMC8728848.
# This is one part of the list.
# Assays:
# Experiment in all cases: glycan array binding signal (z-score within array); higher = stronger binding
# Conditions in all cases: glycan notation: IUPAC condensed, linker removed
# [1] = biological target: GlcNAc(b1-3)Gal(b1-4)GlcNAc(b1-3)Gal(b1-4)GlcNAc(b1-3)Gal(b1-4)GlcNAc(b1-3)Gal(b1-4)GlcNAc(b1-2)[GlcNAc(b1-3)Gal(b1-4)GlcNAc(b1-3)Gal(b1-4)GlcNAc(b1-3)Gal(b1-4)GlcNAc(b1-3)Gal(b1-4)GlcNAc(b1-6)]Man(a1-6)[GlcNAc(b1-3)Gal(b1-4)GlcNAc(b1-3)Gal(b1-4)GlcNAc(b1-3)Gal(b1-4)GlcNAc(b1-3)Gal(b1-4)GlcNAc(b1-2)Man(a1-3)]Man(b1-4)GlcNAc(b1-4)[Fuc(a1-6)]GlcNAc
# How it was run: (§1)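 Glycan array data came from 3228 arrays in the Consortium for Functional Glycomics database, and only arrays with an available protein sequence were kept. Glycan names were put into IUPAC-condensed notation, and columns mapping to the same glycan were averaged. The binding signal is a within-array Z-score, averaged across arrays of one protein sequence run at different concentrations or buffers and across linkers. A negative Z-score can be read as non-binding.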
# [2] = biological target: GlcNAc(b1-3)Gal(b1-4)GlcNAc(b1-3)Gal(b1-4)GlcNAc(b1-3)GalNAc
# How it was run: as §1
# [3] = biological target: GlcNAc(b1-3)Gal(b1-4)GlcNAc(b1-3)GalNAc
# How it was run: as §1
# [4] = biological target: GlcNAc(b1-3)Gal(b1-4)GlcNAc(b1-3)[GlcNAc(b1-3)Gal(b1-4)GlcNAc(b1-3)]GalNAc
# How it was run: as §1
# [5] = biological target: GlcNAc(b1-3)Gal(b1-4)GlcNAc(b1-6)[Gal(b1-3)]GalNAc
# How it was run: as §1
# [6] = biological target: GlcNAc(b1-3)Gal(b1-4)GlcNAc(b1-6)[GlcNAc(b1-3)Gal(b1-3)]GalNAc
# How it was run: as §1
# [7] = biological target: GlcNAc(b1-3)Gal(b1-4)GlcNAc(b1-6)[GlcNAc(b1-3)]Gal(b1-4)GlcNAc
# How it was run: as §1
# [8] = biological target: GlcNAc(b1-3)GalNAc
# How it was run: as §1
# [9] = biological target: GlcNAc(b1-3)Man
# How it was run: as §1
# [10] = biological target: GlcNAc(b1-3)[GlcNAc(b1-4)][GlcNAc(b1-6)]GlcNAc
# How it was run: as §1
# [11] = biological target: GlcNAc(b1-3)[GlcNAc(b1-6)]Gal(b1-4)GlcNAc
# How it was run: as §1
# [12] = biological target: GlcNAc(b1-3)[GlcNAc(b1-6)]GalNAc
# How it was run: as §1
# [13] = biological target: GlcNAc(b1-4)Gal(b1-4)GlcNAc
# How it was run: as §1
# [14] = biological target: GlcNAc(b1-4)GlcNAc
# How it was run: as §1
# [15] = biological target: GlcNAc(b1-4)GlcNAc(b1-4)GlcNAc
# How it was run: as §1
# [16] = biological target: GlcNAc(b1-4)GlcNAc(b1-4)GlcNAc(b1-4)GlcNAc(b1-4)GlcNAc
# How it was run: as §1
# [17] = biological target: GlcNAc(b1-4)GlcNAc(b1-4)GlcNAc(b1-4)GlcNAc(b1-4)GlcNAc(b1-4)GlcNAc
# How it was run: as §1
# [18] = biological target: GlcNAc(b1-4)[GlcNAc(b1-6)]GalNAc
# How it was run: as §1
# [19] = biological target: GlcNAc(b1-6)Gal(b1-4)GlcNAc
# How it was run: as §1
# [20] = biological target: GlcNAc(b1-6)GalNAc
# How it was run: as §1
# [21] = biological target: GlcNAc6S(b1-3)Gal(b1-4)GlcNAc
# How it was run: as §1
# [22] = biological target: Kdn(a2-3)Gal(b1-3)GalNAc
# How it was run: as §1
# [23] = biological target: Kdn(a2-3)Gal(b1-3)GlcNAc
# How it was run: as §1
# [24] = biological target: Kdn(a2-3)Gal(b1-4)Glc
# How it was run: as §1
# [25] = biological target: Kdn(a2-3)Gal(b1-4)GlcNAc
# How it was run: as §1
# [26] = biological target: Kdn(a2-3)Gal(b1-4)[Fuc(a1-3)]GlcNAc
# How it was run: as §1
# [27] = biological target: Kdn(a2-6)Gal(b1-4)GlcNAc
# How it was run: as §1
# [28] = biological target: Man(a1-2)Man(a1-2)Man(a1-3)Man
# How it was run: as §1
# [29] = biological target: Man(a1-2)Man(a1-2)Man(a1-6)[Man(a1-3)]Man
# How it was run: as §1
# [30] = biological target: Man(a1-2)Man(a1-3)Man
# How it was run: as §1
# [31] = biological target: Man(a1-2)Man(a1-3)[Man(a1-2)Man(a1-6)]Man
# How it was run: as §1
# [32] = biological target: Man(a1-2)Man(a1-3)[Man(a1-2)Man(a1-6)]Man(a1-6)[Man(a1-2)Man(a1-2)Man(a1-3)]Man
# How it was run: as §1
# [33] = biological target: Man(a1-2)Man(a1-3)[Man(a1-2)Man(a1-6)]Man(a1-6)[Man(a1-2)Man(a1-2)Man(a1-3)]Man(b1-4)GlcNAc(b1-4)GlcNAc
# How it was run: as §1
# [34] = biological target: Man(a1-2)Man(a1-3)[Man(a1-6)]Man(a1-6)[Man(a1-2)Man(a1-3)]Man(b1-4)GlcNAc(b1-4)GlcNAc
# How it was run: as §1
# [35] = biological target: Man(a1-2)Man(a1-6)[Man(a1-3)]Man(a1-6)[Man(a1-2)Man(a1-2)Man(a1-3)]Man
# How it was run: as §1
# [36] = biological target: Man(a1-2)Man(a1-6)[Man(a1-3)]Man(a1-6)[Man(a1-2)Man(a1-2)Man(a1-3)]Man(b1-4)GlcNAc(b1-4)GlcNAc
# How it was run: as §1
# [37] = biological target: Man(a1-3)[Man(a1-6)]Man
# How it was run: as §1
binder,measurement,setting,value
"Epa9 (Candida glabrata), CAGL0A01386g (protein) MGSSHHHHHHSSGLVPRGSHMDITPFAHYPRPEGCSSPPNAVSVGLHMDLYNYPYLYVKNPRTGFTNDTDSDADGETDGDSAGGIEGRAGQCWNPEYQDPNFPRYGYKKYGSFGSSDHVNGKISWDHNEFKEGCKPIMARLPTAYNYPAKITFSNFTMVLSGYFKPKSTGLYKFEIHADDFILFNFGSKNAFECCNREESIDNFGPYVAYAMWPNEADQELEVYLFEDSYYPIRLFYNNRDYHSKFMVGFYPPNTEEITYDFDGYLYMLDDTGNECKDSIRYKTVCDD",glycan array binding signal (z-score),[1],-0.234
same,glycan array binding signal (z-score),[2],-0.475
same,glycan array binding signal (z-score),[3],-0.458
same,glycan array binding signal (z-score),[4],-0.395
same,glycan array binding signal (z-score),[5],0.614
same,glycan array binding signal (z-score),[6],-0.454
same,glycan array binding signal (z-score),[7],-0.506
same,glycan array binding signal (z-score),[8],-0.493
same,glycan array binding signal (z-score),[9],-0.505
same,glycan array binding signal (z-score),[10],-0.457
same,glycan array binding signal (z-score),[11],-0.452
same,glycan array binding signal (z-score),[12],-0.456
same,glycan array binding signal (z-score),[13],-0.496
same,glycan array binding signal (z-score),[14],-0.49
same,glycan array binding signal (z-score),[15],-0.472
same,glycan array binding signal (z-score),[16],-0.484
same,glycan array binding signal (z-score),[17],-0.49
same,glycan array binding signal (z-score),[18],-0.483
same,glycan array binding signal (z-score),[19],0.361
same,glycan array binding signal (z-score),[20],-0.467
same,glycan array binding signal (z-score),[21],1.15
same,glycan array binding signal (z-score),[22],-0.446
same,glycan array binding signal (z-score),[23],-0.454
same,glycan array binding signal (z-score),[24],-0.399
same,glycan array binding signal (z-score),[25],-0.394
same,glycan array binding signal (z-score),[26],-0.358
same,glycan array binding signal (z-score),[27],-0.387
same,glycan array binding signal (z-score),[28],-0.43
same,glycan array binding signal (z-score),[29],-0.491
same,glycan array binding signal (z-score),[30],-0.467
same,glycan array binding signal (z-score),[31],-0.635
same,glycan array binding signal (z-score),[32],-0.575
same,glycan array binding signal (z-score),[33],-0.329
same,glycan array binding signal (z-score),[34],-0.578
same,glycan array binding signal (z-score),[35],-0.519
same,glycan array binding signal (z-score),[36],-0.486
same,glycan array binding signal (z-score),[37],-0.466
